The campaign covered roughly 48,000 compounds. About 120 (0.25%) were called active. Another 4% or so got no clear call; they are omitted. Calls follow the shape of the dose curve; as a rule, active = well fitted activation curve with a large enough effect; inconclusive = small, poorly fitted or top-dose-only effect, or another doubt; inactive = no such curve, though single readings can be large or run the other way. The list shows a part of the results.

The nature of this assay: Primary qHTS for Identification of Small Molecule Activators of Huntingtin-Antisense Promoter Activity. Also: nearly all actives have a fitted effect of over 55% in size. To be noted: HEK293 HTT-AS promoter firefly luciferase reporter, 24 h; series mostly up to 57.5 µM; activity change, positive = activation: at the top concentration. Summed up: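 Firefly luciferase readout (Dual-Glo, 10 min RT) after 24 h, 37 °C compound exposure (final up to 57.5 uM) of HEK293 reporter cells cultured 24 h beforehand; PTC124 at 50 uM final as control inhibitor; activity scaled vehicle 0%, zero RLU -100%.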
With `COc1ccc([C@@H]2Sc3ccccc3NC(=O)[C@@H]2O)cc1`, the “activity change, positive = activation” value is inactive: -13.7%. As to `CC(=O)C1=C(c2ccc(F)cc2)N(C(C)=O)n2c(nnc2C2CCCCC2)S1`, the “activity change, positive = activation” value was inactive: -0.967%. For `CNC(=O)c1ccc(-c2cnc3ncc(Cc4ccc5ncccc5c4)n3n2)cc1F`, the “activity change, positive = activation” value was inactive: -3.38%. As to `COC(=O)[C@H]1[C@H]2C[C@@H]3c4[nH]c5cc(OC)ccc5c4CCN3C[C@H]2C[C@@H](OC(=O)COc2ccc(OC)cc2)[C@@H]1OC`, the “activity change, positive = activation” value is inactive: -11.3%. Consider `CCOc1ccc(C(=O)NCC(c2ccc(Cl)cc2)N2CCCCC2)cc1` (configuration not stated), for which the “activity change, positive = activation” value was inactive: 6.43%. `Nc1nc(=O)n([C@H]2C[C@H](O)[C@@H](CO)O2)cc1F`: the “activity change, positive = activation” value is inactive: -8.31%.

Consider `O=C(Cn1ncc2c3ccccc3n(Cc3cccc(Cl)c3)c2c1=O)NCCCN1CCCCC1`, for which the “activity change, positive = activation” value was inactive: -1.24%.

With `CCOCCCNc1nc2c(S(=O)(=O)c3ccc(CC)cc3)nnn2c2ccc(Cl)cc12`, the “activity change, positive = activation” value was inactive: 16.5%. With `Cc1ccc(CNC(=O)Cn2c(=O)cc(C)c3c(C)nn(-c4cccc(F)c4)c32)cc1`, the “activity change, positive = activation” value was inactive: -5.61%. As for `Cc1ccc(C)c(N2CCN(S(=O)(=O)c3ccc(-c4cnc(C5CC5)o4)cc3)CC2)c1`, the “activity change, positive = activation” value is inactive: -10.5%.

As to `Cc1ccc(NC(=O)CSc2nc(-c3cccs3)nc3cc(=O)[nH]n23)cc1C`, the “activity change, positive = activation” value is inactive: -17.5%.

For the compound `CCOc1ccccc1CN1CCc2nc(N3CCN(C)CC3)ncc2C1`, the “activity change, positive = activation” value was inactive: -8.92%.

Consider `O=C(NCCc1ccccc1)C1CCN(Cc2cc3ccccc3n2Cc2ccccc2)CC1`, for which the “activity change, positive = activation” value is inactive: -31.1%. `COc1ccc(-c2cn3cccnc3n2)cc1NC(=O)Nc1cc(C)ccc1C`: the “activity change, positive = activation” value is inactive: -3.3%. With `COc1ccc(COC(=O)C2=C(C)NC(=O)CC2c2cccc(Cl)c2Cl)cc1` (configuration not stated), the “activity change, positive = activation” value was inactive: -11%. `CCOc1ccc(-c2cc(C(=O)NC(C)c3ccccc3)c3ccccc3n2)cc1` (configuration not stated): the “activity change, positive = activation” value was inactive: 15.6%. The value for `CN1C(C(=O)c2ccccc2)=C(NC(=O)c2ccc(F)cc2)c2ccccc2S1(=O)=O` was inactive: -11.2%.

On to `CCOC(=O)c1cc(-c2ccc(OC)c(S(=O)(=O)NCc3ccccc3Cl)c2)on1`, for which the “activity change, positive = activation” value is inactive: -9.8%. Then `CC1CCCCN1CCCNC(=O)CN1C(=O)CSc2ccc(S(=O)(=O)N3CCOCC3)cc21` (configuration not stated), with inactive: -8.39%. With `COc1ccc(OC)c(NC(=O)Cn2ccn(-c3ccc(OC)c(OC)c3)c(=O)c2=O)c1`, the “activity change, positive = activation” value was inactive: -1.08%.

`COc1ccc(-c2nnn3c2nc(NCc2ccc(C)cc2)c2ccccc23)cc1`: the “activity change, positive = activation” value was inactive: -4.54%. On to `Cc1cc(C)c(NC(=O)C(C)n2c(=O)cc(-c3ccccc3)c3c(C)nn(C)c32)c(C)c1` (configuration not stated), for which the “activity change, positive = activation” value was inactive: -0.712%. For the compound `CCCNC(=O)CSc1c(CCC)cnc2c1c(=O)n(C)c(=O)n2C`, the “activity change, positive = activation” value was inactive: -4.06%. As to `CC(C)COCC(CN(Cc1ccccc1)c1ccccc1)N1CCCC1` (configuration not stated), the “activity change, positive = activation” value is inactive: -31.5%. For `O=C(CCOCCOCCOCCOCCC(=O)Nc1c(I)cc(I)c(C(=O)O)c1I)Nc1c(I)cc(I)c(C(=O)O)c1I`, the “activity change, positive = activation” value is inactive: -4.42%. The value for `C[C@H]1[C@@H](OC(=O)CCC(=O)O)O[C@@H]2O[C@@]3(C)CC[C@@H]4[C@H](C)CC[C@@H]1[C@@]24OO3` was inactive: -31.2%; that for `O=C(CN1C(=O)C2(SCC(=O)N2c2cccc(F)c2)c2ccccc21)NCCc1ccccc1` (configuration not stated) was inactive: -8.12%; that for `O=C(NCCc1csc(-c2cccnc2)n1)c1ccccc1` was inactive: 5.85%.

On to `CCOC(=O)c1cnc(N2CCN(c3cccc(C)c3C)CC2)c2ccccc12`, for which the “activity change, positive = activation” value was inactive: 1.39%. As for `Cc1ccccc1C(=O)OCc1cc(=O)n2nc(C3CCCCC3)sc2n1`, the “activity change, positive = activation” value is inactive: 9.12%.

As for `Cc1nnc2c(N3CCN(c4ccc(F)cc4)CC3)nc3ccc(C(=O)c4ccccc4)cc3n12`, the “activity change, positive = activation” value was inactive: -1.55%. Take `CCOc1ccccc1NC(=O)CN(C)S(=O)(=O)c1ccc(C(=O)N2CCOCC2)s1`: the “activity change, positive = activation” value was inactive: 0.783%.

On to `O=c1c(=O)n(-c2ccc(F)c(F)c2)ccn1Cc1ccc(F)cc1Cl`, for which the “activity change, positive = activation” value is inactive: -0.412%. On to `COc1ccc(C)cc1NC(=O)C1CCCN(c2ncnc3onc(C)c23)C1` (configuration not stated), for which the “activity change, positive = activation” value was inactive: -26.8%. The value for `Cc1cccc(NC(=O)CCn2cnc3ccccc3c2=O)c1` was inactive: -2.21% [at 11.5 µM, percent change from vehicle, -100% = no light]. For the compound `CCCc1nnc(NC(=O)c2nc(SCC)ncc2Cl)s1`, the “activity change, positive = activation” value is inactive: 14.8%.

Take `CCOC(=O)C1=C(CS(=O)(=O)c2ccc(F)c(C)c2)NC(=O)NC1c1ccccc1OC` (configuration not stated): the “activity change, positive = activation” value is inactive: -18.4%.

Take `CCOC(=O)c1noc2ncn(CC(=O)Nc3cccc(C(F)(F)F)c3)c(=O)c12`: the “activity change, positive = activation” value is inactive: -11.7%. `CCc1nn(CC(=O)N2CCCCC2)c(=O)c2cc3occc3n12`: the “activity change, positive = activation” value was inactive: -9.56%.

In the case of `CN(C)/N=N/c1nc[nH]c1C(N)=O`, the “activity change, positive = activation” value was inactive: 0.831%. Then `CCOc1ccc(NC(=O)N2CCN(c3nnc(C)c4c(C)n(-c5ccccc5)nc34)CC2)cc1`, with inactive: -6.62%; and `COc1ccc(-n2nc(C(=O)Nc3cc(C)ccn3)c3c4ccccc4n(C)c3c2=O)cc1`, with inactive: 3.94%; and `CCCCn1c(=O)n(-c2cc(OC)ccc2OC)c(=O)c2c3c(sc21)CN(C(C)=O)CC3`, with inactive: -14.3%. Regarding `Cc1cc(Nc2cccc(Cl)c2)nc2ccc(NC(=O)c3cncc(Br)c3)cc12`, the “activity change, positive = activation” value was inactive: -54.2%. With `O=C(CC1N=C2c3ccccc3N=C(SCc3ccccc3Cl)N2C1=O)NCCc1ccccc1` (configuration not stated), the “activity change, positive = activation” value was inactive: -18.6%. On to `CCOc1ccc(-n2nc3ccc(NC(=O)c4ccc(OC)c(Cl)c4)cc3n2)cc1`, for which the “activity change, positive = activation” value is inactive: -0.247%. As for `Cc1ccc2c(=O)cc(C(=O)Nc3sc4c(c3C(=O)NCC3CCCO3)CCC4)oc2c1` (configuration not stated), the “activity change, positive = activation” value was inactive: -2.67%.

Values taken from PubChem BioAssay AID1508624 (National Center for Advancing Translational Sciences (NCATS), 2021).
